The values that follow come from a collection of fitness landscapes (doi:10.1016/j.celrep.2020.107928).

In all, about 81,000 sequences were measured (“one-hybrid fitness for binding NBS DNA”: median about -0.1, highest 2% from about 0.36 on). This is one part of the list.

The labels stand for the following.
B1: Caulobacter ParB omega fusion; a variant is named by its letters at X, in order, B8GW30 (parent)
chain: MESVVVGEPGMSEGRRGLGRGLSALLGEVDAAPAQAPGEQLGGSREAPIEILQRNPDQPRRTFREEDLEDLSNSIREKGVLQPILVRPSPDTAGEYQIVAGERAWRAAQRAGLKTVPIMVRELDDLAVLEIGIIENVQRADLNVLEEALSYKVLMEKFERTQENIAQTIGKSXSHVANXMRLLXLPDEVQSYLVSGELTAXHARAIAAAADPVALAKQIIEGGLSVRETEALARKAPNLSAGKSKGGRPPRVKDTDTQALESDLSSVLGLDVSIDHRGSTGTLTITYATLEQLDDLCNRLTRGI

The assay covers variants of B1. The assay can be described thus: one-hybrid fitness for binding NBS DNA (the Noc-binding site; scaled: cognate 1, non-cognate 0); higher = stronger binding. Particulars: with NBS DNA site. Put shortly: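 Values were rescaled so that cognate is 1 and non-cognate is 0. Each is a fitness, the log change in a variant's read ratio to wild type from Illumina reads of plasmids before and after selection, with three replicate libraries pooled and variants under 10 reads dropped. Selection of the Caulobacter ParB libraries, four specificity codons randomised, used E. coli USO with a HIS3 reporter, site 19 bp from the promoter, on M9-minus-histidine with 0.1 mM IPTG and 5 mM 3-AT for 48 hours at 37°C.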
For the variant SDSA, the “one-hybrid fitness for binding NBS DNA” value is ≤ 0.2.
With RPAM, the “one-hybrid fitness for binding NBS DNA” value is ≤ 0.2.
As for LKER, the “one-hybrid fitness for binding NBS DNA” value was ≤ 0.2.
Consider PLHI, for which the “one-hybrid fitness for binding NBS DNA” value was ≤ 0.2.
Turning to DNTS, the “one-hybrid fitness for binding NBS DNA” value was ≤ 0.2.
For YMNS, the “one-hybrid fitness for binding NBS DNA” value was ≤ 0.2.
HTAH: the “one-hybrid fitness for binding NBS DNA” value is ≤ 0.2.
The same measure for TGYC: ≤ 0.2; for RNGF: ≤ 0.2.
Take DLLY: the “one-hybrid fitness for binding NBS DNA” value was ≤ 0.2.
On to DTWD, for which the “one-hybrid fitness for binding NBS DNA” value is ≤ 0.2.
RNLW: the “one-hybrid fitness for binding NBS DNA” value is ≤ 0.2.
With SMHQ, the “one-hybrid fitness for binding NBS DNA” value was ≤ 0.2.
Consider RPSS, for which the “one-hybrid fitness for binding NBS DNA” value was ≤ 0.2.
Regarding LSIG, the “one-hybrid fitness for binding NBS DNA” value is ≤ 0.2.
As for QLLA, the “one-hybrid fitness for binding NBS DNA” value was ≤ 0.2.
With RPAT, the “one-hybrid fitness for binding NBS DNA” value was ≤ 0.2.
Take MLDL: the “one-hybrid fitness for binding NBS DNA” value was ≤ 0.2.
As for PGER, the “one-hybrid fitness for binding NBS DNA” value was ≤ 0.2.
Regarding MKAG, the “one-hybrid fitness for binding NBS DNA” value was ≤ 0.2.
As for EVLW, the “one-hybrid fitness for binding NBS DNA” value is ≤ 0.2.
Regarding DQTY, the “one-hybrid fitness for binding NBS DNA” value was ≤ 0.2.
In the case of MVEC it was 0.453; in that of PETI, ≤ 0.2.
The same measure for ELEI: ≤ 0.2; for IRQA: ≤ 0.2.
For QNGA, the “one-hybrid fitness for binding NBS DNA” value is ≤ 0.2.
For PAKK, the “one-hybrid fitness for binding NBS DNA” value was ≤ 0.2.
As to EKLG, the “one-hybrid fitness for binding NBS DNA” value is ≤ 0.2.
The same measure for QCGM: ≤ 0.2; for AGTY: ≤ 0.2.
In the case of HGVT, the “one-hybrid fitness for binding NBS DNA” value is ≤ 0.2.
As to ICSC, the “one-hybrid fitness for binding NBS DNA” value was ≤ 0.2.
For WTEC, the “one-hybrid fitness for binding NBS DNA” value was ≤ 0.2.
In the case of TEDK, the “one-hybrid fitness for binding NBS DNA” value was ≤ 0.2.
In the case of NRLS, the “one-hybrid fitness for binding NBS DNA” value is ≤ 0.2.
Take VLVW: the “one-hybrid fitness for binding NBS DNA” value is ≤ 0.2.
Take PNFY: the “one-hybrid fitness for binding NBS DNA” value is ≤ 0.2.
AQQS: the “one-hybrid fitness for binding NBS DNA” value was ≤ 0.2.
The same measure for VRPA: ≤ 0.2.
In the case of SISM, the “one-hybrid fitness for binding NBS DNA” value is ≤ 0.2.
In the case of NHGG, the “one-hybrid fitness for binding NBS DNA” value was ≤ 0.2.
For the variant PNTD, the “one-hybrid fitness for binding NBS DNA” value was ≤ 0.2.
The same measure for YPHM: ≤ 0.2; for YHYR: ≤ 0.2; for LRVN: ≤ 0.2.
VTIG: the “one-hybrid fitness for binding NBS DNA” value is ≤ 0.2.
With QIPW, the “one-hybrid fitness for binding NBS DNA” value is ≤ 0.2.
For LNGS, the “one-hybrid fitness for binding NBS DNA” value is ≤ 0.2.
In the case of WLHV it was ≤ 0.2; in that of NWHF, ≤ 0.2.
As for WVAR, the “one-hybrid fitness for binding NBS DNA” value was ≤ 0.2.
Turning to QCHL, the “one-hybrid fitness for binding NBS DNA” value was ≤ 0.2.
Regarding DPNK, the “one-hybrid fitness for binding NBS DNA” value was ≤ 0.2.
Consider QAVD, for which the “one-hybrid fitness for binding NBS DNA” value is ≤ 0.2.
On to KRAE, for which the “one-hybrid fitness for binding NBS DNA” value was ≤ 0.2.
Take NLDW: the “one-hybrid fitness for binding NBS DNA” value is ≤ 0.2.
Consider LWNL, for which the “one-hybrid fitness for binding NBS DNA” value is ≤ 0.2.
The same measure for LEHG: ≤ 0.2; for IICS: ≤ 0.2.
As for QSNT, the “one-hybrid fitness for binding NBS DNA” value was found to be 0.476.
CPYD: the “one-hybrid fitness for binding NBS DNA” value was ≤ 0.2.
With RTYM, the “one-hybrid fitness for binding NBS DNA” value is ≤ 0.2.
As for QPMF, the “one-hybrid fitness for binding NBS DNA” value was ≤ 0.2.
Regarding RYIC, the “one-hybrid fitness for binding NBS DNA” value is ≤ 0.2.
Turning to PWVK, the “one-hybrid fitness for binding NBS DNA” value is ≤ 0.2.
The same measure for PQYL: ≤ 0.2; for QPFG: ≤ 0.2.
As for RNPA, the “one-hybrid fitness for binding NBS DNA” value is ≤ 0.2.
On to ERKK, for which the “one-hybrid fitness for binding NBS DNA” value was ≤ 0.2.
On to LPQN, for which the “one-hybrid fitness for binding NBS DNA” value is ≤ 0.2.
For DCYT, the “one-hybrid fitness for binding NBS DNA” value was ≤ 0.2.
On to QCYC, for which the “one-hybrid fitness for binding NBS DNA” value amounted to 0.204.
The same measure for CMHS: ≤ 0.2; for QPWG: ≤ 0.2; for VPML: ≤ 0.2.
In the case of ENAW it was ≤ 0.2; in that of DDQP, ≤ 0.2.
Turning to SNLG, the “one-hybrid fitness for binding NBS DNA” value was ≤ 0.2.
On to IEPC, for which the “one-hybrid fitness for binding NBS DNA” value is ≤ 0.2.
Turning to FIPG, the “one-hybrid fitness for binding NBS DNA” value was ≤ 0.2.
As for CGSY, the “one-hybrid fitness for binding NBS DNA” value was ≤ 0.2.
For the variant GSRI, the “one-hybrid fitness for binding NBS DNA” value is ≤ 0.2.
The same measure for PPAG: ≤ 0.2.
Consider TPMA, for which the “one-hybrid fitness for binding NBS DNA” value was ≤ 0.2.
The same measure for ITAF: ≤ 0.2; for SLNE: ≤ 0.2; for PCIT: ≤ 0.2.
As for HIWV, the “one-hybrid fitness for binding NBS DNA” value is ≤ 0.2.
The same measure for IECR: ≤ 0.2; for FSRF: ≤ 0.2; for QEHC: ≤ 0.2.
In the case of DKHS it was ≤ 0.2; in that of AIYN, ≤ 0.2; in that of HPLC, ≤ 0.2.
As to LHPF, the “one-hybrid fitness for binding NBS DNA” value was ≤ 0.2.
For the variant NHKI, the “one-hybrid fitness for binding NBS DNA” value was ≤ 0.2.
